# Laboratory results reported in paper PMC4336329 (PLoS ONE, 2015).
# About 2,200 (0.71%) of roughly 310,000 compounds showed an effect of 50% or more. Effects have a minus sign here. Some of the results follow.
# Target: human ether-à-go-go-related gene (hERG) potassium channel (human, UniProt Q12809)
# Assay: primary screen, population patch clamp on CHO cells stably expressing hERG
# Sequence of human ether-à-go-go-related gene (hERG) potassium channel (Q12809 whole entry, looked up): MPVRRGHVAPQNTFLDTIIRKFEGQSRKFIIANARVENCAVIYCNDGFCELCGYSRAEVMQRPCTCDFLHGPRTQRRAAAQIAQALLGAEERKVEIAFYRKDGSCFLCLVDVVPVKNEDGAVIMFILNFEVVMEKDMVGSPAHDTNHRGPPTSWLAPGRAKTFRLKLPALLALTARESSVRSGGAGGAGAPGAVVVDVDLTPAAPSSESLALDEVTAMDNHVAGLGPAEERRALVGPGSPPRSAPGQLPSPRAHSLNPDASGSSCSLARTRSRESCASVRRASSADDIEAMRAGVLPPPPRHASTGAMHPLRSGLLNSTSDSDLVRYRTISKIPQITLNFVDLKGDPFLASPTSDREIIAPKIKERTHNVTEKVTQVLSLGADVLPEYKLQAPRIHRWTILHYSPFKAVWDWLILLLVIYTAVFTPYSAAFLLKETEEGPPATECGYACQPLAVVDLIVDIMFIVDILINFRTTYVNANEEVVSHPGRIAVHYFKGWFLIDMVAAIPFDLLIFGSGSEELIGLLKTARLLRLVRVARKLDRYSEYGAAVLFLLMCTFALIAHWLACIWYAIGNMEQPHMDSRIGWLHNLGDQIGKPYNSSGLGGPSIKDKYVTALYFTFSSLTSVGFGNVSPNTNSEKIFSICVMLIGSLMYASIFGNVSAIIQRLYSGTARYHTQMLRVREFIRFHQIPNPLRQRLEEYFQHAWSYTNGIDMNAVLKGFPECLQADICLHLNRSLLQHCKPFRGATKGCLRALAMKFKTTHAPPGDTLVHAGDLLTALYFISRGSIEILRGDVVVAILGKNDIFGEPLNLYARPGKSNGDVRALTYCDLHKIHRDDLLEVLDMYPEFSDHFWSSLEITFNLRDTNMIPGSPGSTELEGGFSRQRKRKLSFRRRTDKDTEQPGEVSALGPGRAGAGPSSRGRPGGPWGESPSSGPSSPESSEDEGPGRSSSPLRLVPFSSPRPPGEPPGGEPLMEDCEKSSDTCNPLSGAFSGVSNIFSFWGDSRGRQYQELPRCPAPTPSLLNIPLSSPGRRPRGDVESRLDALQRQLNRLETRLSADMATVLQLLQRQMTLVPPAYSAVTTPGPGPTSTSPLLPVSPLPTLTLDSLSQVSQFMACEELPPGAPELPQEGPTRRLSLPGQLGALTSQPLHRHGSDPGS
row,Compound,"hERG current change (%, negative = inhibition) at 1uM"
1,O=C(CCCN1C(=O)NC2(CCCC2)C1=O)Nc1ccc(F)cc1,12.1%
2,Cn1c(O)c(C=Nc2ccc(Br)cc2)sc1=O,15.2%
3,C1CNC(C23CC4CC(CC(C4)C2)C3)=N1,16.7%
4,CCC(=O)N1c2ccc(S(=O)(=O)NC3CCCCC3)cc2CC1C (stereo not shown),4.96%
5,Cc1ccc(NC(=O)c2ccc(CSc3ncnc4nc[nH]c34)cc2)c(C)c1,8.32%
6,COc1ccc(S(=O)(=O)n2ccc(C(C)Oc3ccc(-c4ccccc4)c(F)c3)n2)cc1 (stereo not shown),13.4%
7,Brc1ccc(-c2noc(-c3ccccn3)n2)o1,8.06%
8,COc1ccc(C/C(N)=N/n2cnnc2)cc1,12%
9,Cc1ccc(S(=O)(=O)NC2CCCC2)cc1C(N)=O,9.63%
10,COC(=O)c1cccc(NC(=O)Nc2ccc(Cl)c(Cl)c2)c1,7.07%
11,COc1ccc2cc(CCNC(=O)c3c(-c4ccccc4Cl)noc3C)c(=O)[nH]c2c1,9.53%
12,Cc1ccccc1NC(=O)c1cccc2nccnc12,6.18%
13,Cc1cc(C)n(-c2ccc(C(=O)Nc3ccccn3)cc2)n1,8.48%
14,Cc1ccc(NC(=O)CN2C(=O)S/C(=C\c3ccc(-c4cccc(C(=O)O)c4C)o3)C2=O)cc1,-4.13%
15,CC(=O)c1cc(C(=O)N2CCCC(C(=O)c3ccc(Cl)cc3)C2)cs1 (stereo not shown),-10%
16,O=C(COC(=O)CSc1ccc2ccccc2c1)NC1CCCC1,5.98%
17,COc1ccc(C(CCc2ccc(C)o2)NC(=O)Nc2ccc(OC)cc2OC)cc1 (stereo not shown),-6.54%
18,Cc1ccc(NP(=O)(c2ccc(N(C)C)cc2NC(=O)c2cccs2)N2CCOCC2)cc1Cl (stereo not shown),-0.549%
19,COc1ccc(-c2[nH]ncc2CN2CCC(O)(c3ccc(Cl)cc3)CC2)cc1,-27.5%
20,Cc1ccccc1-n1c(SCc2c(C)noc2C)nnc1-c1c[nH]c2ccccc12,9.91%
21,CNC(=O)c1cc2ccccc2o1,4.84%
22,Cc1ccc(/C=C/C(=O)O)cc1S(=O)(=O)NCc1cccnc1,11.8%
23,COc1cccc(/C=N/NC(=O)c2c(-c3ccccc3)noc2C)c1O,9.26%
24,O=S(=O)(NC1CC2CCC1C2)c1ccc2c(c1)OCCO2 (stereo not shown),10.6%
25,CCC(=O)OC1(C)C(=O)C=C2C=C(c3ccc(C#N)cc3)OC=C2C1=O (stereo not shown),3.14%
